Among all 360,000 compounds or so, about 25,000 (6.9%) were called active. The inconclusive results got no clear call from the source; some entries with a clear call stand among them for comparison. Calls come from the whole dose curve; as a rule, active = well fitted inhibition curve with a large enough effect; inconclusive = small, poorly fitted or top-dose-only effect; inactive = flat fitted curve, though single readings scatter. Potencies of inconclusive entries are doubtful fits and often do not repeat.
target: Luciferin 4-monooxygenase (Photinus pyralis) (UniProt P08659); assay: qHTS profiling assay for firefly luciferase inhibitor/activator using purifed enzyme and Km concentrations of substrates (counterscreen for miR-21 project); conditions: purified FLuc, luminescence inhibition; activity change, negative = inhibition: at 57.5 µM (top of the series); note: nearly all actives have a fitted effect of over 55% in size;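 for activity change, negative = inhibition: plate controls were vehicle for no effect and reference inhibitor for full effect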
Chain of UniProt P08659 (P08659 whole entry, looked up): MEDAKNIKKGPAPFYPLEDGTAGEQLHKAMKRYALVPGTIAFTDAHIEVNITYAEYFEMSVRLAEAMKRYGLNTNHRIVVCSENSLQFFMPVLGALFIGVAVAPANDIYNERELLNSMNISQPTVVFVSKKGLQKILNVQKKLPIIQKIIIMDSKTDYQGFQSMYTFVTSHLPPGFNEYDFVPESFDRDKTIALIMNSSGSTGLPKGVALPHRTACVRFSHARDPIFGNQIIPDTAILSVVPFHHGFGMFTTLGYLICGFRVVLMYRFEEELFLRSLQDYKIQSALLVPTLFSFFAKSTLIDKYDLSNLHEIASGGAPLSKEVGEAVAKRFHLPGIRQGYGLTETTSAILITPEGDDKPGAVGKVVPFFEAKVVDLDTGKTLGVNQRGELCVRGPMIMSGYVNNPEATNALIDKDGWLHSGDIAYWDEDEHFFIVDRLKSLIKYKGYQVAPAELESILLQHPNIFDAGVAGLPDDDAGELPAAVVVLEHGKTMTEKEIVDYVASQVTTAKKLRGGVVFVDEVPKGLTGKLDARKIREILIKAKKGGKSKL
Procedure, shortened: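 Purified P. pyralis luciferase, 10 nM final, with Km-level 10 uM D-luciferin and 10 uM ATP in 50 mM Tris acetate pH 7.5, 10 mM Mg acetate, 0.01% Tween-20, 0.05% BSA; 6-point qHTS titration about 60 µM downward; luminescence read.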
Potency is the fitted concentration of half-maximal effect; tags give direction and shape of the fitted curve.

| SMILES | Potency | activity change, negative = inhibition |
| --- | --- | --- |
| Cc1cc(O)c(C2=Nc3ccccc3SC(c3ccc(Cl)cc3)C2)c(=O)o1 (configuration not stated) | active: 4.78 µM |  |
| CCCNC(=O)c1ccc(N2CCC3(CC2)CC(c2ccccc2)=NO3)c(N)c1 |  | inactive: -2.99% |
| CCc1cccc(C)c1N=Cc1c(O)c2ccccc2oc1=O | inconclusive: 37.9 µM [inhibitor, partial curve, poor fit] |  |
| C=C(C)COc1ccc2c(C)c(CC(=O)OC)c(=O)oc2c1C | active: 9.53 µM |  |
| CCOc1ccc(-n2nc3cc(C)c(NC(=O)CC)cc3n2)cc1 | inconclusive: 0.849 µM [inhibitor, full curve, poor fit] |  |
| C/C=C/C=C/C(=O)O |  | inactive: 3.4% |
| CCOc1ccc(-c2ccc(C=O)o2)c([N+](=O)[O-])c1 | inconclusive: 30.1 µM [inhibitor, partial curve, poor fit] |  |
| CC(=O)N1c2ccccc2C2(O)N=C(C)SC12 (configuration not stated) | inconclusive: 19 µM [inhibitor, single point] |  |
| N#C/C(=C/c1cccn1-c1cccc(C(=O)O)c1)c1ccc(F)cc1 | inconclusive: 30.1 µM [inhibitor, single point] |  |
| COc1ccc(/C=C/C(=O)NC(=S)NNC(=O)c2cccnc2)cc1 | active: 23.9 µM |  |
| COc1cccc(C(=O)N/N=C(\C)CC(=O)Nc2ccc(N(C)C)cc2)c1 | inconclusive: 30.1 µM [inhibitor, partial curve, poor fit] |  |
| CCN=c1sc(C(=O)OC)cc(=O)n1CC | inconclusive: 8.49 µM [inhibitor, partial curve, poor fit] |  |
| Cc1ccc(C(=O)NNC(=O)c2cc(C)nc3ccccc23)cc1 | inconclusive: 21.3 µM [inhibitor, single point] |  |
| CCOC(=O)c1sc(=N)n(-c2ccc(OC)cc2)c1C | active: 19 µM |  |
| Oc1ccccc1N1CCN(c2ncnc3sc(-c4ccccc4)cc23)CC1 |  | inactive: -11.7% |
| CCN(CC)C(=O)c1c2c(nc3ccccc13)-c1ccccc1CC2 | inconclusive: 21.3 µM [inhibitor, partial curve] |  |
| COCCC1CCCCN1C(=O)c1cc(COc2cccc(C(C)=O)c2)on1 (configuration not stated) | inconclusive: 16.9 µM [inhibitor, partial curve] |  |
| Cn1cccc1/C=C1\CCc2ccccc2C1=O | active: 1.51 µM |  |
| CC1(C)c2cc(Cl)ccc2-n2c1cc(O)c(-c1ccccc1)c2=O | inconclusive: 21.3 µM [inhibitor, partial curve, poor fit] |  |
| Cc1nc(NC(=O)/C=C/c2ccc(F)cc2)sc1C(=O)N(C)C | active: 16.9 µM |  |
| C/C(=N\NC(=O)c1ccc(-c2ccccc2)cc1)c1cccc(N)c1 | inconclusive: 12 µM [inhibitor, partial curve, poor fit] |  |
| Cc1ccc(SCc2ccc(C(=O)N3CCCCC3)cc2)cc1 | inconclusive: 23.9 µM [inhibitor, single point] |  |
| c1ccc2c(c1)ncn2CCCOc1ccc2c(c1)CCC2 | active: 15.1 µM |  |
| COc1cc(NC(=S)Nc2ccc(N(C)C(C)=O)cc2)cc(OC)c1 |  | inactive: 0.476% |

| SMILES | Potency | activity change, negative = inhibition |
| --- | --- | --- |
| N#C/C(=C/c1ccc(-c2ccc(C(=O)O)c(Cl)c2)o1)C(=O)NCC1CCCO1 (configuration not stated) | inconclusive: 19 µM [inhibitor, partial curve, poor fit] |  |
| O=C(Nc1ccccc1[N+](=O)[O-])c1cc(S(=O)(=O)Nc2ccccn2)ccc1Cl | inconclusive: 37.9 µM [inhibitor, partial curve, poor fit] |  |
| COc1ccc(CCN2C(=O)c3cccnc3C2=O)cc1OC |  | inactive: -0.943% |
| COc1ccc(-c2noc(N3CCCC(C(=O)Nc4ccc(F)cc4F)C3)n2)cc1 (configuration not stated) | inconclusive: 19 µM [inhibitor, partial curve] |  |
| CCc1nc2sc3c(c2c(=O)o1)CCCC3 | inconclusive: 21.3 µM [inhibitor, partial curve, poor fit] |  |
| O=C(Nc1ccc(NC(=O)C2CC2)nc1)c1cnccn1 |  | inactive: -20.7% |
| COc1ccc(S(=O)(=O)c2c(O)c3ccc(C(=O)Nc4cccc(F)c4)cc3[nH]c2=O)cc1 | inconclusive: 23.9 µM [inhibitor, partial curve, poor fit] |  |
| O=C(NCCOc1ccccc1)c1cncc(Br)c1 | inconclusive: 26.9 µM [inhibitor, single point] |  |
| CCOc1ccc(OCCC(=O)OCC(=O)NC2CCCCC2)cc1 | inconclusive: 30.1 µM [inhibitor, partial curve, poor fit] |  |
| Cc1cccc(NC(=O)c2cccs2)n1 | inconclusive: 23.9 µM [inhibitor, partial curve, poor fit] |  |
| CN1CCN(c2ccc(NC(=O)COc3cccc4ccccc34)cc2)CC1 |  | inactive: -19% |
| CCc1ccc(NC(=O)c2noc3c2CCc2ccccc2-3)cc1 | active: 10.7 µM |  |
| O=C1C(C=Nc2ccc(F)cc2)=C(O)c2ccccc21 | active: 0.269 µM |  |
| O=C1/C(=C\c2cccc(O)c2O)SC(=S)N1Cc1ccccc1 | inconclusive: 37.9 µM [inhibitor, partial curve, poor fit] |  |
| COc1ccccc1-c1ccnc2[nH]n(-c3ccccc3)c(=O)c12 | inconclusive: 26.9 µM [inhibitor, partial curve] |  |
| CC(=O)c1sc(N)c(C(=O)OC(C)C)c1C | inconclusive: 23.9 µM [inhibitor, partial curve] |  |
| COc1ccc(Nc2cc(Nc3cc(OC)c(OC)c(OC)c3)ncn2)cc1 | inconclusive: 37.9 µM [inhibitor, partial curve, poor fit] |  |
| COc1ccc(OC)c(S(=O)(=O)NCc2ccccn2)c1 |  | inactive: 0.823% |
| CN1CCC(NC(=S)Nc2cccc([N+](=O)[O-])c2)CC1 |  | inactive: 1.72% |
| Cc1[nH]c2ccccc2c1/C=N/NC(=O)c1cc(-c2ccccc2)n[nH]1 | active: 23.9 µM |  |
| Cc1cccc(Oc2ccc(Cl)cc2N)c1 | active: 16.9 µM |  |
| CC1CCN(c2nnc(-c3ccccc3)c3ccccc23)CC1 | inconclusive: 21.3 µM [inhibitor, single point] |  |
| COc1cc(C(=O)Nc2ccc(NC(=O)c3ccc(Br)cc3)cc2)cc(OC)c1OC |  | inactive: 1.13% |

From PubChem BioAssay AID588342 (National Center for Advancing Translational Sciences (NCATS), 2011)
